Measured values taken from publication PMC10726135.
Some of the results follow. At the low end of the ranking the order means little. The protein was read in a cell extract, so binding may be indirect.

molecular target: T1, HNF4alpha8 (COS-7 nuclear extract) (UniProt P41235-5); assay: protein-binding microarray; details: COS-7 nuclear extract on double-stranded Agilent 4x180k PBM; binding buffer, salt, pH and temperature not given; high values mean tight binding; double strand, one strand shown; sequences stand for … in …GCCTAGGGAGATTAGAGTATCGGTCGA
T1 sequence: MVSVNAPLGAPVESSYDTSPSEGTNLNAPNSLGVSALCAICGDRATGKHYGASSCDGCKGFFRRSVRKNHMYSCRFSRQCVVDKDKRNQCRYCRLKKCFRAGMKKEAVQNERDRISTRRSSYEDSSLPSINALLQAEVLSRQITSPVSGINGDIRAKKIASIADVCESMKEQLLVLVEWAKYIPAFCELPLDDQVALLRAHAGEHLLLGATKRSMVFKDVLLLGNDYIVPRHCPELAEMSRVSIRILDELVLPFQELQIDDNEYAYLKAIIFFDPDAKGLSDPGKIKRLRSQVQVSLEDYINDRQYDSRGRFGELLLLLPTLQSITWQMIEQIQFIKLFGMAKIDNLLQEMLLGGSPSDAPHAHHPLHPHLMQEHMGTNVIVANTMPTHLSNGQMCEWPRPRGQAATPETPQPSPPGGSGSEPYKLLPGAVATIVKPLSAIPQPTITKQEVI

Sequence | binding signal (log2 normalized intensity)
AGCTGCTGGCAGGAATTTTAAAAGTATACT | -1.12
AACTTTGCAGCAGATAATTACCTGGACTCT | 3.94
AAGAGTTAAAAAAAAAAAAAACTATCAAAC | -1.27
TTTGATCCTGATGACTGCAGAGCTTGCTCT | -1.23
GTAGATTAAATCCTCGAAGAGTTTGAACTA | 1
CCGGACATGGAGAGGTGAGACACGTGTGCC | -0.118
TACACACATTCCAATCTTCTTTTCCAGTCT | -0.344
TTATTAGTCCAAGAGATTTCTACAGATAGC | -1.14
GGGCCCCAGGGGACGTGGAATAGATCAGCT | -1.18
GGGGACTGCCTCTTCAGGAGGCACTGATAA | -1.23
CAGACTGGTGCTATGTCCCTGACTGTGTGG | 1.14
CCCAGGTCCTTTGGTCTGGCATTCAGCGCC | -0.913
AGGTCACAGCATTAGAGCAACCAGAATGTT | -1.29
AGGAAAGGGCTTTGGGGACTGAAGACTTTG | -1.28
CCTGAAGCTGCCCTTTGCACATGCCCCTCC | 5.07
CCAGGAGAGCCGAAGCAGTCAAATGACCCT | 4.77
CACGTCTCAAGCTTCAGGAGTCCACTGTGT | 1.89
GCTCATGCAGCTGCTGCCCAAAGGTCACCT | 5.82
AGTTCATAGCAAAGTTTTTGTTCAATATGC | 1.24
TCACTGCTGGTGGGTGGGGGAAGTGTGGTC | 1.35
TCAGTCTGAGATAGTCATTCTTCTACAGTG | 0.384
CTAAGTCTTTCCACACAGCCTGTCAAAGGG | 0.314
TGTAGGCCGTAACTGTCTCTGTTGCTCAAT | -0.232
GAGGGCGCTGTTGATGGGCAGCGCGGCGCG | -1.39

Sequence | binding signal (log2 normalized intensity)
CCCATTCTGTGCTGGCCCTGGGGGTGGGGG | -0.34
GTGGGAGGGAGGCTTTTGCAGTCACTCTCT | -1.39
TGAACCAATGCCACAGAAAAGGCAGCAGCT | -1.35
AAGGAATGTAATGTATGCATAGACTGCCCA | 1.18
CCTTTCCCTTATCTTTGTTATCTGTTGGTT | 2.03
CTCTGAAGTTTAATCCTCTCACCCAAGATC | 2.13
GACTCTGAGCCTCCTCCCTCTCTCTCTTAA | -0.662
ATGAGTCTTGGGAATGAATCAGAATTTGGA | 0.665
CTGAAGCATGCTATTTCAGGAATGTGACCC | 4.95
GCCTCGCCCTGCTTCGGCTCGCGCACGGTG | -1.29
CCCCTGCAATACAGCCTTGTTTACAACGCT | -0.957
AGCGGGGCCTCTGTGTGGGGCTGATAAGGC | -1.42
GACTGCAGAGATTGGAATCTCTGCACAGCA | -1.29
AAATGCATTTCCTTATTCTTAACAAGCTGA | -1.37
CAGAAAGTGACGTGCAGAGGAGCAACTCAT | -1.39
AAGGCTCTTTGTTCAGAGGGCATGTTGAGT | 1.8
CTATTTCAGGAATGTGACCCCTTTCATGAA | 4.4
TCTTACCCAACCAAAAACAAAACTGGTCAT | 2
CTTTGGAGTTTACTTTAGATGTGTTTGAGT | 1.94
TTTTATTTTCCCCCTTTGAAGTCTGCCCTC | 4.94
GCAGGAGCCCAAGAAGCGTCAGTTGCCTCG | -1.4
TTTGACCTTAAGTCAGAAGAACTGATTCCA | 1.63
GCCTTGCAGGTTCTCAGAAACGCCTGGCGC | -1.26
CCAGGGGACGTGGAATAGATCAGCTTTCAA | -1.3

Sequence | binding signal (log2 normalized intensity)
GCTCAAGTCTTTTAGAATGTGGATGGGCTG | -0.117
AAGAAACATTTTACAACCTATTCTCTCTGA | -1.31
TTTCTGAGGAGCTAACAGTAAAACTGAGAT | -1.23
GTCAGATGACAGAATTGGTCCTGGAACTCA | 0.192
ACTGCCTGACCCCAAGTAATAGCCGTTTCT | 1.4
TGAGGATACCAGAAATTCCATGATTTTCTG | -1.31
AAGCAGCATTCCACCAAATCTTACCTAAGG | -1.24
TTCAGGGAGCGAATAAATACATAAAGTCCA | 1.92
AGACACAAAAAGGCAAAGGTGTCAGGACCT | -1.31
ACCAAACAGAGAGAAAGCAGTGACCATCCC | -1.25
CCAGTGTGTTGTGCTGACCTCCTGTCTCAT | 2.69
CATCTGGGCAAGGTGTCAACCTTCATTCTC | 0.575
TCTTCACCTGCCCTGAGTCCAGCCTTCCTG | 0.791
GGTGGACTGATAGGTGCGTGGGGGAGGGGC | -1.47
TACAAAATTTACTTTAAATACACCTAACCC | -0.792
GATCCCGAAAGCCGGTTCCCGCCCAAGGAG | -1.22
GTGGCCTTGCCATTGGAGGTCACCCTGTGT | 2.7
GGGAAAACCTGACTGCGCTCCCAGAAGCCT | -1.28
GAATTCCACAGCAGAAGGCAACAGCTCTGG | -1.38
CCAACAAAAGAAAGCCCATTAAATCTTCCC | -1.33
GTCAAAAGGGGAAATATGTAGGTTTGGGGA | -1.34
AAAGTTTGGACTAGCCACAGGGGAAACACA | -1.39
TCTCCCAATCTCGAGATCATTTACATGTGT | 1.62
TGTTCCACAGCAAGTAAATTCCGGGGCTGG | -1.21

Sequence | binding signal (log2 normalized intensity)
TCATAATTTTGGACTTTGTGCAAATGGAAA | 4.69
AGGCTTGCAATGCGGAATGACATTCAGCAA | -1.32
AAGTTGGAATTTGGGTGATCCTGGTAGCAG | 0.514
TGGCTCTGAAAAACAAAATGCATTTCCTTA | -1.31
AGTGCACATTCCAGAGAAATAGTGAGACAG | -1.46
ACCCTGACCTGGCATATCTCTGTCCCTGAT | 0.594
TCTGATCTTTGACTTCTAGTTCTTATCTCA | 1.18
CACCTGAGTCCAGAGGTCAAGGCTGCAGCG | 3.88
TTTGAAATAGTGACCTCTGCTGGCCAGTGG | 2.44
AACTGTAGTGCATAGTGGGTTTCGGTGTCA | 1.15
AAATAATTACTTCTTGAAGCCACTTGCTTA | -1.03
AAGAGACTTTGCCCTTTTTTTCTCTCCCCT | 3.92
GGGTAAAATGAGAATGAGACCTGCTAGGCT | -1.35
GCCCCAGTAAAACTGGAAAATCAAAGACTC | -1.23
TTGTATTTTGCCAAAGAGGTCTTATGCTCA | 0.483
AATCCTTAAGCAGCAGATAAGGCTAATCCT | -1.21
TCACTTGTTTATCTGCTGCCCTTCCCTCCA | 3.03
AAAGATCACACAAATGGATCTTTCTTCAAA | -1.32
TGCACTTTGACCGCTCATTTGATCCTCACA | 4.61
TTGACCTTTAGAAGGTTATTAGTGATAAGC | 3.79
AAGGTCACAGCACTGTTTATTTTGTGTGAT | 1.64
